Data on 70 molecules can be found in the supplement of paper PMC4723716.

The structures appear in SMILES notation. ± gives the uncertainty stated by the source. Over roughly 9,900 compounds, “viability index relative to DMSO control” has its median near 1; the lowest 2% begin near 0.85. Some of the results follow.

In the experiment the test system is Plasmodium falciparum NF54 stage V gametocytes. Put plainly: viability index relative to DMSO control (fraction); higher = less gametocyte killing. The note with it: 2.5 µM, library set: Broad Institute DOS, incubation time: 72 h. In outline:
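Viability index is the count of red-stained particles in a well divided by the plate mean of solvent-only wells. Particles of 20–70 µm2 were counted in one imaged field per well after one to two hours with 3 µl of 2.5 µM MitoTracker Red CMXRos and 0.13% saponin. Before staining, P. falciparum NF54 stage V gametocytes in serum-free medium (0.75% gametocytemia, 1.25% hematocrit, 10 µl, 1,536-well plates) were kept with compound at 2.5 µM for 72 hr at 37°C under low oxygen.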
Regarding `C[C@@H]1CN([C@@H](C)CO)C(=O)c2ccccc2-c2ccccc2CO[C@H]1CN(C)Cc1ccccc1C(F)(F)F`, the viability index was 0.883 ± 0.044.
The same measure for `COc1ccc(C#Cc2cccc(-c3nc(C(=O)N4CCN(Cc5ccccc5)CC4)cc4c3[C@H](CCO)N(S(=O)C(C)(C)C)C4)c2)cc1OC` (stereo not given in full): 1.04 ± 0.11; for `COc1ccc(S(=O)(=O)N(C)C[C@H]2OCCCC[C@@H](C)Oc3ccc(NC(=O)Cc4ccccc4)cc3C(=O)N([C@@H](C)CO)C[C@H]2C)cc1`: 0.773 ± 0.061.
The same measure for `C[C@H]1CN([C@@H](C)CO)C(=O)c2cc(NC(=O)C3CCCCC3)ccc2O[C@@H]1CN(C)Cc1ccc2c(c1)OCO2`: 1.01 ± 0.036.
The figure for `C[C@H](NC(=O)C[C@@H]1CC[C@H]2[C@@H](COC[C@@H](O)CN2Cc2ccc(C(F)(F)F)cc2)O1)c1ccccc1` is 1.017 ± 0.0018; for `COc1ccc2c3c([C@H](CO)N(C[C@]33CN(Cc4ccccc4OC)C3)C(=O)C3CC3)n(C)c2c1` it is 0.9565 ± 0.0033.
`COc1ccc(S(=O)(=O)Nc2ccc3c(c2)C(=O)N([C@H](C)CO)C[C@@H](C)[C@H](CN(C)C(=O)Nc2c(C)noc2C)OCCCC[C@@H](C)O3)cc1` yielded a viability index of 1.05 ± 0.011.
The same measure for `COc1ccccc1-c1ccc([C@H]2[C@@H](CO)N(C(C)=O)[C@H]2CN(C)C(C)=O)cc1`: 1.03 ± 0.028; for `N#C[C@@H]1[C@H](c2ccccc2-c2cccc(F)c2)[C@H](CO)N1C(=O)c1cccnc1`: 1.05 ± 0.12.
The same measure for `CCS(=O)(=O)N1CC2(C1)[C@@H](c1ccccc1)[C@H](CO)N2Cc1ccc(F)cc1`: 1.11 ± 0.024; for `C/C=C/c1ccc([C@@H]2[C@@H]3CN(C(=O)Nc4ccccc4F)C[C@H]2N3)cc1`: 1.15 ± 0.024.
With `O=C(C[C@H]1C=C[C@@H](NC(=O)Cc2ccccn2)[C@@H](CO)O1)NCCc1ccncc1`, the viability index came out at 1.14 ± 0.016.
`OC[C@@H]1[C@@H](c2ccc(C#CC3(O)CCCC3)cc2)[C@H]2CN(Cc3cncnc3)CCCCN12`: the viability index worked out at 1.02 ± 0.046.
The figure for `COCC(=O)N1[C@H](CO)[C@H](c2ccc(C#CCC3CCCC3)cc2)[C@@H]1C#N` is 0.971 ± 0.046.
The same measure for `CO[C@@H](CN(C)C(=O)c1ccc2c(c1)OCO2)[C@@H](C)CN([C@H](C)CO)S(=O)(=O)c1ccc(Cl)cc1`: 1.11 ± 0.016.
The figure for `C/C=C/c1cnc2c(c1)C(=O)N([C@@H](C)CO)C[C@@H](C)[C@@H](CN(C)C(=O)Nc1cccc(OC)c1)O2` is 1.06 ± 0.016; for `N#C[C@H]1N[C@H](CO)[C@H]1c1ccc(C2=CCCC2)cc1` it is 1.25 ± 0.072.
Regarding `N#C[C@@H]1[C@@H](c2ccccc2-c2cccc(F)c2)[C@@H](CO)N1C(=O)CN1CCOCC1`, the viability index came out at 1.2 ± 0.06.
The figure for `CN(C)Cc1cn(CC[C@H]2CC[C@@H](NC(=O)Cc3cccnc3)[C@H](CO)O2)nn1` is 0.979 ± 0.021.
The figure for `C[C@@H]1CN([C@@H](C)CO)C(=O)c2ccccc2-c2ccccc2CO[C@@H]1CN(C)C(=O)c1cc(Cl)cc(Cl)c1` is 1.02 ± 0.0065; for `Cc1cc(C(=O)Nc2cccc3c2O[C@@H](CN(C)C)[C@H](C)CN([C@H](C)CO)C3=O)n(C)n1` it is 0.9615 ± 0.0061; for `Cc1ccccc1-c1ccc([C@H]2[C@H]3CN(S(=O)(=O)Cc4ccccc4)CCCCN3[C@H]2CO)cc1` it is 0.894 ± 0.069.
The same measure for `CCCN1C[C@H](C)[C@H](OC)CN(C)C(=O)c2ccc(NS(=O)(=O)c3cn(C)cn3)cc2OC[C@@H]1C`: 1.02 ± 0.064; for `COCC(=O)N1C[C@]2(CCN(Cc3ccccc3)CC2)c2c([nH]c3cc(OC)ccc23)[C@H]1CO`: 1.024 ± 0.0051.
With `O=C1N[C@@H](Cc2ccccc2)COCc2cnnn2CC[C@@H]1Cc1ccc(-c2ccccc2)cc1`, the viability index was 1.06 ± 0.025.
The figure for `CN1C(=O)c2cc(NC(=O)c3ccc(C(F)(F)F)cc3)ccc2OC[C@@H]2O[C@H](CC(=O)NCc3ccc4c(c3)OCO4)CC[C@H]21` is 1.16 ± 0.027; for `C[C@@H](O)C#Cc1ccc([C@@H]2[C@H](CO)N3CCCCN(CC4CC4)C[C@@H]23)cc1` it is 1.01 ± 0.03.
The same measure for `CO[C@H]1CN(C)C(=O)c2cc(NC(C)=O)ccc2OC[C@H](C)N(Cc2ccncc2)C[C@@H]1C`: 0.937 ± 0.066; for `COCC(=O)Nc1ccc2c(c1)[C@H]1C[C@@H](CC(=O)N3CCOCC3)O[C@@H](CO)[C@H]1O2`: 1.13 ± 0.083; for `COc1ccccc1CN1[C@@H](CO)[C@@H]2c3ccccc3N(C(=O)c3cccnc3)C[C@@H]21`: 1.07 ± 0.011.
In turn, `CO[C@@H]1CN(C)C(=O)c2cc(NC(=O)c3cnccn3)ccc2OC[C@@H](C)NC[C@@H]1C` registered a viability index of 1.0046 ± 0.0004.
The figure for `CCCNC(=O)N1C[C@@H](C)[C@H](OC)CN(C)C(=O)c2ccc(NC(=O)CC)cc2OC[C@H]1C` is 1.09 ± 0.047; for `CO[C@H]1CN(C)C(=O)c2ccc(NS(C)(=O)=O)cc2OC[C@H](C)N(C(=O)CN(C)C)C[C@H]1C` it is 0.958 ± 0.02.
The figure for `C[C@@H]1CN([C@@H](C)CO)C(=O)c2cc(NC(=O)Nc3ccc4c(c3)OCO4)ccc2O[C@@H](C)CCCCO[C@@H]1CN(C)S(=O)(=O)c1ccccc1` is 1.03 ± 0.046; for `CCS(=O)(=O)NCC[C@@H]1CC[C@@H](NS(=O)(=O)c2ccccc2C)[C@@H](CO)O1` it is 1.02 ± 0.049; for `CN1CCN(C(=O)[C@H]2[C@H](CO)[C@H]3Cn4c(ccc(-c5ccncc5)c4=O)[C@H]3N2CC2CC2)CC1` it is 0.999 ± 0.12.
The figure for `CN1CCN(C(=O)C[C@H]2CC[C@@H]3[C@@H](COc4ccc(NC(=O)c5cccs5)cc4C(=O)N3C)O2)CC1` is 0.986 ± 0.047; for `C[C@@H]1CN([C@H](C)CO)C(=O)c2c(c3ccccc3n2C)-c2ccccc2CO[C@@H]1CN(C)S(=O)(=O)c1ccccc1C#N` it is 1.03 ± 0.014; for `C[C@H]1C/C=C/C[C@H](c2cccc(Cl)c2)NC(=O)[C@H](Cc2ccccc2)N(C)C(=O)c2ccccc2O1.C[C@H]1C/C=C\C[C@H](c2cccc(Cl)c2)NC(=O)[C@H](Cc2ccccc2)N(C)C(=O)c2ccccc2O1` it is 0.894 ± 0.1.
With `COc1ccc(NC(=O)N2CC(=O)N3[C@H](C2)[C@@H](c2ccc(Br)cc2)[C@@H]3CO)cc1`, the viability index came out at 0.973 ± 0.025.
The same measure for `CN(C)C(=O)c1ccc(-c2ccc([C@@H]3[C@@H]4CN(C(=O)Nc5ccc(Cl)cc5)C[C@H]3N4)cc2)cc1`: 0.967 ± 0.09; for `CCC(=O)N1[C@H](CO)[C@H]2c3ccccc3N(C(=O)c3cnccn3)C[C@H]21`: 1.02 ± 0.11.
The molecule `Cc1nn(C)cc1NC(=O)C[C@H]1CC[C@@H]2[C@@H](COc3ccc(NC(=O)c4cccc(F)c4)cc3C(=O)N2C)O1` registered a viability index of 1.13 ± 0.14.
The same measure for `C[C@@H]1CN([C@H](C)CO)C(=O)Cc2cc(NC(=O)CCC(F)(F)F)ccc2O[C@@H]1CN(C)CC1CC1`: 1.1 ± 0.097; for `COc1ccc(CN(C)C[C@H]2OCCCC[C@H](C)Oc3ccc(NC(=O)C4CCCCC4)cc3C(=O)N([C@@H](C)CO)C[C@@H]2C)cc1`: 1.08 ± 0.023; for `N#C[C@@H]1[C@@H](c2ccccc2-c2cccc(F)c2)[C@@H](CO)N1C(=O)NC1CCCCC1`: 1 ± 0.061.
The same measure for `C[C@@H]1COCc2cn(nn2)CC[C@H](C)C(=O)N1`: 1.04 ± 0.011; for `O=C(C[C@@H]1CC[C@H](NC(=O)c2cccnc2)[C@@H](CO)O1)NCc1ccc(Cl)c(Cl)c1`: 0.911 ± 0.023; for `C[C@H]1CN([C@@H](C)CO)C(=O)CCCn2nncc2CO[C@@H]1CN(C)C(=O)Nc1ccc(-c2cccs2)cc1`: 1.08 ± 0.14.
The figure for `CO[C@@H]1CN(C)C(=O)c2cc(NC(C)=O)ccc2OC[C@H](C)N(S(C)(=O)=O)C[C@H]1C` is 1.059 ± 0.0024; for `CCCC(=O)Nc1ccc2c(c1)C(=O)N(C)C[C@H](OC)[C@H](C)CN(C(=O)c1ccccn1)[C@H](C)CO2` it is 1.04 ± 0.044.
With `CC(C)(C)S(=O)N1Cc2cc(C(=O)NCc3ccc(Oc4ccccc4)cc3)nc(-c3cccc(-c4cccc(F)c4)c3)c2[C@@H]1CCO` (stereo not given in full), the viability index was determined as 1.02 ± 0.034.
The same measure for `COc1cccc(S(=O)(=O)N2CC[C@@H]3[C@H]2c2cc(C#Cc4cccnc4)ccc2N[C@@H]3CO)c1`: 1.06 ± 0.034.
The same measure for `Cc1ccccc1S(=O)(=O)Nc1ccc2c(c1)C(=O)N(C)[C@@H]1CC[C@H](CC(=O)O)O[C@H]1CO2`: 0.912 ± 0.21.
As to `CNC[C@H]1OCc2cnnn2CCCC(=O)N([C@@H](C)CO)C[C@H]1C`, the viability index came out at 1.12 ± 0.055.
`CCCNC(=O)N1CC(=O)N2[C@H](CO)[C@@H](c3ccc(C#Cc4cccc(OC)c4)cc3)[C@H]2C1` registered a viability index of 0.936 ± 0.075.
The same measure for `COc1cccc(-c2cn(CC[C@H]3CC[C@@H](NS(=O)(=O)c4ccccc4Cl)[C@@H](CO)O3)nn2)c1`: 0.991 ± 0.025; for `CO[C@@H]1CN(C)C(=O)c2cc(NC(=O)NC(C)C)ccc2OC[C@@H](C)N(C(=O)CN(C)C)C[C@@H]1C`: 1.05 ± 0.023; for `CO[C@H]1CN(C)C(=O)c2cccc(C#N)c2OCC[C@@H]2CC[C@H](OC)[C@@H](CN(C)C(=O)[C@H]1C)O2`: 1.05 ± 0.052.
The same measure for `O=C(C[C@H]1CC[C@@H]2NC[C@@H](O)COC[C@H]2O1)NCCN1CCCCC1`: 1.05 ± 0.031; for `COCC#Cc1ccc([C@@H]2[C@@H](CO)N3C(=O)CN(C(=O)Nc4ccccc4F)C[C@@H]23)cc1`: 1.02 ± 0.025; for `Cn1cnc(S(=O)(=O)N2C[C@H](O)COC[C@@H]3O[C@@H](CC(=O)NCc4cccc(F)c4)CC[C@H]32)c1`: 1.03 ± 0.071.
The figure for `O=C(CN1CCOCC1)N1CC(=O)N2[C@H](CO)[C@H](c3ccc(-c4cccc(F)c4)cc3)[C@@H]2C1` is 1.04 ± 0.082.
In turn, `C[C@H]1CN([C@@H](C)CO)C(=O)c2cc(/C=C/c3ccccc3)cnc2O[C@H]1CN(C)S(=O)(=O)c1ccccc1F` came in with a viability index of 1.03 ± 0.12.
Take `C[C@H](CO)N1C[C@H](C)[C@H](CN(C)C(=O)c2cc(Cl)cc(Cl)c2)OCc2ccccc2-c2ccccc2C1=O`: the viability index is 1.04 ± 0.066.
The figure for `O=C(c1ccccc1F)N1C[C@@H]2[C@H](c3ccccc31)[C@H](CO)N2Cc1ccc2c(c1)OCO2` is 0.988 ± 0.11; for `Cc1cccc(S(=O)(=O)N2C[C@H](O)COC[C@@H]3O[C@@H](CC(=O)Nc4ccccc4)CC[C@H]32)c1` it is 1.09 ± 0.065.
The same measure for `CN1C(=O)c2cc(NC(=O)Cc3cccs3)ccc2OC[C@H]2O[C@@H](CC(=O)NCC3CCCCC3)CC[C@H]21`: 1.09 ± 0.12.
The same measure for `O=C(N[C@@H]1CC[C@H](CC(=O)N2CCOCC2)O[C@@H]1CO)c1cccc(F)c1`: 0.988 ± 0.051.
As to `C[C@H](NC(=O)C[C@H]1CC[C@H]2[C@@H](COC[C@H](O)CN2Cc2ccc(C(F)(F)F)cc2)O1)c1ccccc1`, the viability index was 0.938 ± 0.093.
